Further values from the same series stand in other lists. Inconclusive results and toxic doses are left out. The calls were made as follows: active = survival T/C of 150% or more; inactive = T/C below 125% in these data.
Tested on: P388 leukemia ip, CD2F1 mice, survival T/C
Assay: NCI In Vivo Anticancer Drug Screen. Data for tumor model P388 Leukemia (intraperitoneal) in CD2F1 (CDF1) mice
Settings: endpoint: median survival time, higher = longer survival
In short: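 Mice carrying the transplanted tumor received test compound or vehicle. Survival was recorded in each group, and the value is the treated-group measurement divided by that of the vehicle-treated control group.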

Measured: T/C

O=NN(CCCl)C(=O)NCCCl
inactive: dose: 3.3 mg/kg/injection, schedule: Q01DX005 (ip), vehicle: saline + alcohol 89 % of control | dose: 3.3 mg/kg/injection, schedule: Q01DX009 (ip), vehicle: saline + alcohol 91 % of control | dose: 25.0 mg/kg/injection, schedule: Q01DX005 (ip), vehicle: saline with Tween-80 = 90 % of control | dose: 50.0 mg/kg/injection, schedule: Q04DX002 (ip), vehicle: saline + alcohol 88 % of control | dose: 64.0 mg/kg/injection, schedule: Q01DX001 (ip), vehicle: saline with Tween-80 = 66 % of control
